Results as given in patent publication US9763922B2 (priority 2014, dated 2017).

The compounds below were run on MYC (assay: cells). Conditions: Homo sapiens, MV4-11, 4 h, read-out: Myc IC50 (μM).

| SMILES | IC50 [µM] |
| --- | --- |
| CC(=O)N1CCc2c(c(N3CC[C@@H](C)c4cc(-c5cnn(C)c5)c(C(F)F)cc43)nn2C2CCOCC2)C1 [Example 239, (R)-1-[3-[7-(difluoromethyl)-4-methyl-6-(1-methylpyrazol-4-yl)-3,4-dihydro-2H-quinolin-1-yl]-1-tetrahydropyran-4-yl-6,7-dihydro-4H-pyrazolo[4,3-c]pyridin-5-yl]ethanone] | 0.176 |
| CC(=O)N1CCc2c(c(N3CCCc4c3ccc(-c3cnn(C)c3)c4C#N)nn2[C@H]2CCOC2)C1 [Example 132, 1-[5-acetyl-1-[(3S)-tetrahydrofuran-3-yl]-6,7-dihydro-4H-pyrazolo[4,3-c]pyridin-3-yl]-6-(1-methylpyrazol-4-yl)-3,4-dihydro-2H-quinoline-5-carbonitrile] | 0.737 |
| CC(=O)N1CCc2c(c(N3CCc4cc(-c5cnn(C)c5C)c(C(F)F)cc43)nn2C2CCOCC2)C1 [Example 244, 1-[3-[6-(difluoromethyl)-5-(1,5-dimethylpyrazol-4-yl)indolin-1-yl]-1-tetrahydropyran-4-yl-6,7-dihydro-4H-pyrazolo[4,3-c]pyridin-5-yl]ethanone] | 0.086 |
| CC(=O)N1CCc2c(c(Nc3ccc(-c4cnn(C)c4)cc3)nn2CCC(N)=O)C1 [Example 171, 1-[3-[5-(1-methylpyrazol-4-yl)indolin-1-yl]-1-tetrahydrofuran-3-yl-6,7-dihydro-4H-pyrazolo[4,3-c]pyridin-5-yl]ethanone] | 4.55 |
| CC(=O)N1CCc2c(c(Nc3cccc(C(=O)N(C)C)c3)nn2CC2CC2)C1 [Example 220, 1-[3-[4-(hydroxymethyl)-5-(1-methylpyrazol-4-yl)indolin-1-yl]-1-tetrahydrofuran-3-yl-6,7-dihydro-4H-pyrazolo[4,3-c]pyridin-5-yl]ethanone] | 1.72 |
| CNC(=O)c1ccc(-c2cc3c(cc2C#N)N(c2nn([C@H]4CCOC4)c4c2CN(C(C)=O)CC4)CCC3)cn1 [Example 131, 5-[1-[5-acetyl-1-[(3S)-tetrahydrofuran-3-yl]-6,7-dihydro-4H-pyrazolo[4,3-c]pyridin-3-yl]-7-cyano-3,4-dihydro-2H-quinolin-6-yl]-N-methyl-pyridine-2-carboxamide] | 0.051 |
| CNC(=O)N1CCc2c(c(N3CCCc4cc(-c5cnn(C)c5)ccc43)nn2[C@H]2CCOC2)C1 [Example 156, N-methyl-3-[6-(1-methylpyrazol-4-yl)-3,4-dihydro-2H-quinolin-1-yl]-1-[(3S)-tetrahydrofuran-3-yl]-6,7-dihydro-4H-pyrazolo[4,3-c]pyridine-5-carboxamide] | 0.706 |
| CNC(=O)N1CCc2c(c(N3CCCc4cc(-c5cnn(C)c5)c(C(F)F)cc43)nn2C2CCN(CC(F)(F)F)CC2)C1 [Example 334, 3-[7-(difluoromethyl)-6-(1-methylpyrazol-4-yl)-3,4-dihydro-2H-quinolin-1-yl]-N-methyl-1-[1-(2,2,2-trifluoroethyl)-4-piperidyl]-6,7-dihydro-4H-pyrazolo[4,3-c]pyridine-5-carboxamide] | 0.009 |
| CNC(=O)N1CCc2c(c(N3CCCc4cc(-c5cnc(N(C)C)s5)c(C(F)F)cc43)nn2C2CCOCC2)C1 [Example 366, 3-[7-(difluoromethyl)-6-[2-(dimethylamino)thiazol-5-yl]-3,4-dihydro-2H-quinolin-1-yl]-N-methyl-1-tetrahydropyran-4-yl-6,7-dihydro-4H-pyrazolo[4,3-c]pyridine-5-carboxamide] | 0.008 |
| CNC(=O)N1CCc2c(c(N3CCCc4cc(-c5cnn(C)c5)c(Cl)cc43)nn2C2CCN(C3COC3)CC2)C1 [Example 331, 3-[7-chloro-6-(1-methylpyrazol-4-yl)-3,4-dihydro-2H-quinolin-1-yl]-N-methyl-1-[1-(oxetan-3-yl)-4-piperidyl]-6,7-dihydro-4H-pyrazolo[4,3-c]pyridine-5-carboxamide] | 0.018 |
| CC(=O)N1CCc2c(c(N(C)c3ccc(-c4cn(C)nc4C(F)(F)F)cc3)nn2C2CCOC2)C1 (stereo not shown) [Example 226, 1-[3-[N-methyl-4-[1-methyl-3-(trifluoromethyl)pyrazol-4-yl]anilino]-1-tetrahydrofuran-3-yl-6,7-dihydro-4H-pyrazolo[4,3-c]pyridin-5-yl]ethanone] | 0.514 |
| CNC(=O)N1CCc2c(c(N3CCOc4cc(-c5cnn(C)c5)c(C(F)(F)F)cc43)nn2C2CCOCC2)C1 [Example 276, N-methyl-3-[7-(1-methylpyrazol-4-yl)-6-(trifluoromethyl)-2,3-dihydro-1,4-benzoxazin-4-yl]-1-tetrahydropyran-4-yl-6,7-dihydro-4H-pyrazolo[4,3-c]pyridine-5-carboxamide] | 0.013 |
| CNC(=O)N1CCc2c(c(N3CCCc4cc(-c5cnc(OC)nc5)c(C(F)F)cc43)nn2C2CCOCC2)C1 [Example 363, 3-[7-(difluoromethyl)-6-(2-methoxypyrimidin-5-yl)-3,4-dihydro-2H-quinolin-1-yl]-N-methyl-1-tetrahydropyran-4-yl-6,7-dihydro-4H-pyrazolo[4,3-c]pyridine-5-carboxamide] | 0.048 |
| CNC(=O)N1CCc2c(c(Nc3cc(F)c(-c4cnn(C)c4)cc3F)nn2C2CCOCC2)C1 [Example 268, N-methyl-3-[4-methyl-6-(1-methylpyrazol-4-yl)-7-(trifluoromethyl)-2,3-dihydroquinoxalin-1-yl]-1-tetrahydropyran-4-yl-6,7-dihydro-4H-pyrazolo[4,3-c]pyridine-5-carboxamide] | > 10 |
| CNC(=O)N1CCc2c(c(N3CCCc4cc(-c5cnn(C)c5)ncc43)nn2C2CCOCC2)C1 [Example 279, 1-[3-[2,6-difluoro-3-(1-methylpyrazol-4-yl)anilino]-1-tetrahydrofuran-3-yl-6,7-dihydro-4H-pyrazolo[4,3-c]pyridin-5-yl]ethanone] | 0.104 |
| CC(=O)N1CCc2c(c(N3CC(CO)Cc4cc(-c5cnn(C)c5)ccc43)nn2[C@H]2CCOC2)C1 (stereo in doubt) [Example 86, 1-[3-[3-(hydroxymethyl)-6-(1-methylpyrazol-4-yl)-3,4-dihydro-2H-quinolin-1-yl]-1-tetrahydrofuran-3-yl-6,7-dihydro-4H-pyrazolo[4,3-c]pyridin-5-yl]ethanone] | 6.1 |
| CC(=O)N1CCc2c(c(N3CCCc4cc(-c5cnn(C)c5C)c(C#N)cc43)nn2C2CCOCC2)C1 [Example 129, 1-(5-acetyl-1-tetrahydropyran-4-yl-6,7-dihydro-4H-pyrazolo[4,3-c]pyridin-3-yl)-6-(1,5-dimethylpyrazol-4-yl)-3,4-dihydro-2H-quinoline-7-carbonitrile] | 0.028 |
| CNC(=O)N1CCc2c(c(N3CCCc4cc(-c5cnn(C)c5)c(C(F)F)cc43)nn2C2CCN(S(C)(=O)=O)CC2)C1 [Example 337, 3-[7-(difluoromethyl)-6-(1-methylpyrazol-4-yl)-3,4-dihydro-2H-quinolin-1-yl]-N-methyl-1-(1-methylsulfonyl-4-piperidyl)-6,7-dihydro-4H-pyrazolo[4,3-c]pyridine-5-carboxamide] | 0.012 |
| CC(=O)N1CCc2c(c(N3CCCc4cc(-c5cnn(C)c5)c(C#N)cc43)nn2[C@H]2CCOC2)C1 [Example 126, 1-[5-acetyl-1-[(3S)-tetrahydrofuran-3-yl]-6,7-dihydro-4H-pyrazolo[4,3-c]pyridin-3-yl]-6-(1-methylpyrazol-4-yl)-3,4-dihydro-2H-quinoline-7-carbonitrile] | 0.087 |
